Data published in patent US20230114801A1 (SYSTIMMUNE, published 2023).

B1: SI-68X1 (other)
chain 1: DIQMTQSPSTLSASVGDRVTITCQASENIYSNLAWYQQKPGKAPKLLIYDASTLASGVPSRFSGSGSGTEFTLTISSLQPDDFATYYCQSTYYNNIIYGAAFGCGTKVEIKGGGGSGGGGSGGGGSGGGGSEVQLVESGGGLVQPGGSLRLSCAASGFSFSGTQYVCWVRQAPGKCLEWIGCIYVDVANTYYATSVKGRFTISRDNSKNTLYLQMNSLRAEDTAVYYCASHDTVCAGCGLDLWGQGTLVTVSTGGGGSGGGGSEVQLVESGGGLVQPGGSLRLSCAASGFTISTNAMSWVRQAPGKGLEWIGVITGRDITYYASWAKGRFTISRDNSKNTLYLQMNSLRAEDTAVYYCARDGGSSAITSNNIWGQGTLVTVSSASTKGPSVFPLAPSSKSTSGGTAALGCLVKDYFPEPVTVSWNSGALTSGVHTFPAVLQSSGLYSLSSVVTVPSSSLGTQTYICNVNHKPSNTKVDKRVEPKSCDKTHTCPPCPAPEAAGGPSVFLFPPKPKDTLMISRTPEVTCVVVDVSHEDPEVKFNWYVDGVEVHNAKTKPREEQYASTYRVVSVLTVLHQDWLNGKEYKCAVSNKALPAPIEKTISKAKGQPREPQVCTLPPSRDELTKNQVSLSCAVKGFYPSDIAVEWESNGQPENNYKTTPPVLDSDGSFFLVSKLTVDKSRWQQGNVFSCSVMHEALHNHYTQKSLSLSPGK
chain 2: DIQMTQSPSSLSASVGDRVTITCQASQDISNYLNWYQQKPGKAPKLLIYDASNLETGVPSRFSGSGSGTDFTFTISSLQPEDIATYFCQHFDHLPLAFGCGTKVEIKGGGGSGGGGSGGGGSGGGGSQVQLQESGPGLVKPSETLSLTCTVSGGSVSSGDYYWTWIRQSPGKCLEWIGHIYYSGNTNYNPSLKSRLTISIDTSKTQFSLKLSSVTAADTAIYYCVRDRVTGAFDIWGQGTMVTVSTGGGGSGGGGSDVVMTQSPSTLSASVGDRVTINCQASESISSWLAWYQQKPGKAPKLLIYEASKLASGVPSRFSGSGSGTEFTLTISSLQPDDFATYYCQGYFYFISRTYVNSFGGGTKVEIKRTVAAPSVFIFPPSDEQLKSGTASVVCLLNNFYPREAKVQWKVDNALQSGNSQESVTEQDSKDSTYSLSSTLTLSKADYEKHKVYACEVTHQGLSSPVTKSFNRGECGG[human IgG1 Fc with L234A L235A N297A K322A S354C T366W (EU numbers) cut from this listing]
notes: tri-miniGNC, stapled scFv; D1 αCEA, D2 αEGFR*, D3 αCD3 (Fab)
B2: SI-1C7 (Fc fusion)
chain: [human IgG1 Fc with changes cut from this listing]GGGSGGGGSQVQLQESGGGLVKPGGSLRLSCAASGFTFSSYWMSWVRQAPGKGLEWVANINRDGSASYYVDSVKGRFTISRDDAKNSLYLQMNSLRAEDTAVYYCARDRGVGYFDLWGRGTLVTVSSGGGGSGGGGSGGGGSQSALTQPASVSGSPGQSITISCTGTSSDVGGYNFVSWYQQHPGKAPKLMIYDVSDRPSGVSDRFSGSKSGNTASLIISGLQADDEADYYCSSYGSSSTHVIFGGGTKVTVL
notes: Fc-scFv control for the αHER3 domain; also called αHER3 Fc-scFv; D2 = αHER3 unstapled control

Tests used:
human CD3 = molecular target: T1, human CD3 (human, UniProt P07766 23-126; P04234 22-105); test: BLI (Octet), binder on AHC sensor; conditions for this molecule not stated
T1 construct: also called His-tagged human CD3; human CD3 (Acro CDD-H52W1)

human EGFR = molecular target: T2, human EGFR (human, UniProt P00533 in part, limits assumed); test: as above
T2 construct: Soluble antigen in Octet; construct not described

human HER3 = molecular target: T3, human HER3 (human, UniProt P21860 in part); test: BLI (Octet), unstapled control mAb or Fc-scFv
T3 construct: Soluble antigen in Octet; bought; also called human HER3 (Acro ER3-H5223)

human CD3, sequence (P07766 23-126, chain 1 of 2): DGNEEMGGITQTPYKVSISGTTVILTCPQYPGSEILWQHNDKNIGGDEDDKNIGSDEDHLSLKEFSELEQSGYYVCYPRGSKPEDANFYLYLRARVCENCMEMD
human CD3, sequence (P04234 22-105, chain 2 of 2, further chain): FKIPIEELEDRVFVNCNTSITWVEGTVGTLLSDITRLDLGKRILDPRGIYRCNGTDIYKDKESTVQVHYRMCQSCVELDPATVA

| Binder | Kd (human CD3) [nM] | Kd (human EGFR) [nM] | Kd (human HER3) [nM] |
| --- | --- | --- | --- |
| B1 | 14.3 | < 0.001 |  |
| B2 |  |  | 136 |
